PubChem BioAssay AID488969 (Vanderbilt High Throughput Screening Facility, 2010)
Whole data set: some 110,000 compounds, median “z-score” near -0.1, cut for the highest 2% near 2. This is one part of the list. Active and inactive are the calls of the source.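 How the source made its calls: active means z-score in the third read window above 3 or below -3; inactive means the rest.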

Target: Metabotropic glutamate receptor 8 (Rattus norvegicus) (UniProt P70579)
Assay: rat mGluR8 modulators via GIRK flux, primary screen, cell-based, thallium flux, HTS (AID 488969)
Conditions: HEK293 rat mGluR8, GIRK (G protein-gated inwardly rectifying potassium channel) thallium flux, FluoZin2; at 10 µM; stronger effect = higher value; submaximal glutamate (EC20) added with thallium

Chain of UniProt P70579 (P70579 whole entry, looked up): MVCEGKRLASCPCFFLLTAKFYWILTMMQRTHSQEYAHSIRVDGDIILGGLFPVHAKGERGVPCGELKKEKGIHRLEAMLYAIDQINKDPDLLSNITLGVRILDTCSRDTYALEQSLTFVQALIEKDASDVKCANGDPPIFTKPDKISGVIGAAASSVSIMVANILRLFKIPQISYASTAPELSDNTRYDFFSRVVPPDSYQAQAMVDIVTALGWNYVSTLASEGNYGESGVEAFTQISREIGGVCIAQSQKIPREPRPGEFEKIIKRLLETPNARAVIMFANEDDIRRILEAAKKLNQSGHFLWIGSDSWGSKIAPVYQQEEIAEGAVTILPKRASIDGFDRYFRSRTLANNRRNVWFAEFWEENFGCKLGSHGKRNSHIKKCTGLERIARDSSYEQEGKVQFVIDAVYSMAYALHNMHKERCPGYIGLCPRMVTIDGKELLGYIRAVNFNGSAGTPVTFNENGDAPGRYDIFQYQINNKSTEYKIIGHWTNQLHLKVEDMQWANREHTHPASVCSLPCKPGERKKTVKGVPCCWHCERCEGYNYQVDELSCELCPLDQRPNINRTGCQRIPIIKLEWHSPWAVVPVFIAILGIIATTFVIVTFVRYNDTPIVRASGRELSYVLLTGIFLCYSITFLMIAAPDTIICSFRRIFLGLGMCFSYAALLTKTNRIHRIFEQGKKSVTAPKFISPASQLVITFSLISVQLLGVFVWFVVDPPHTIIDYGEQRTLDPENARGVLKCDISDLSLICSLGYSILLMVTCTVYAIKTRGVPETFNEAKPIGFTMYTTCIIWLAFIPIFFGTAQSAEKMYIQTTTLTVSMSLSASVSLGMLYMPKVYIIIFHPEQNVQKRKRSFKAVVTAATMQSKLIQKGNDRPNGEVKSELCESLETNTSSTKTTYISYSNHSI

| Structure (SMILES) | z-score |
| --- | --- |
| O=C(Nc1ccc(Cl)c(Cl)c1)Nc1ccc(N2CCCC2)c(S(=O)(=O)Nc2ccccc2Cl)c1 | 0.0419 |
| CCOC(=O)/C(=N/Nc1ccc(Cl)cc1)Sc1nnnn1-c1ccc(C)cc1 | -0.132 |
| Cc1ocnc1C(=O)Nc1ccc(Cl)cc1 | 0.123 |
| CCC1CCCCN1c1nc(-c2cccc(OC)c2O)nc2ccccc12 (stereo not drawn) | -0.667 |
| CC(C)(C)OC(=O)N1CCCC1C(=O)N1CCc2ccccc21 (stereo not drawn) | -0.138 |
| COCCCNCCCCOc1cccc(Br)c1 | 0.266 |
| COc1ccc(N2CCN(S(=O)(=O)c3cccc4cccnc34)CC2)cc1 | -1.52 |
| COc1cc(/C=N/NC(=O)C(=O)NCc2cccnc2)cc(OC)c1OC | -0.176 |
| Cc1ccccc1S(=O)(=O)Cc1ccc(C(=O)NCCCOC(C)C)o1 | -2.92 |
| Cc1ccc(-c2c(C#N)c(N)nc3c2CCCCC3)cc1 | -0.181 |
| Cc1ccc(S(=O)(=O)NCC(=O)N(CC(=O)NCc2ccco2)Cc2ccc3c(c2)OCO3)cc1 | -0.622 |
| CCc1nnc(NC(=O)c2sc3nc4c(cc3c2N)CCCCCC4)s1 | -0.441 |
| COC(=O)c1cc(C(=O)c2cccc(Cl)c2Cl)cn1C | -0.263 |
| CCOc1ccc(C(=O)Nc2nc(C)cc(C)n2)cc1[N+](=O)[O-] | -0.36 |
| COc1ccc(NC(=S)NC(NC(=O)c2cccc(C)c2)C(Cl)(Cl)Cl)c([N+](=O)[O-])c1 (stereo not drawn) | -0.54 |
| COc1ccc(N2C(=O)CCC(C(=O)Nc3ccccn3)C2c2ccc(OC)c(OC)c2)cc1 (stereo not drawn) | 0.443 |
| CCc1ccc2c(c1)cc(CN(C(=S)Nc1cccc(C)c1)C1CC1)c1nnnn12 | -0.0835 |
| CCOc1cccc(C(=O)Nc2cccc(-c3nnc(-c4ccc(C)cc4)o3)c2)c1 | 0.689 |
| CC(C)(C)NC(=O)COC(=O)c1cc(S(=O)(=O)N2CCCCC2)ccc1N1CCOCC1 | -0.0774 |
| Cc1ccc(CNC(=O)c2c(C)cc(=O)oc2C)cc1 | 0.0838 |
| COc1ccc(CCNC(=O)C2CCCN(Cc3nc(-c4ccccc4C)oc3C)C2)cc1OC (stereo not drawn) | 0.679 |
| CN(C)c1nc(N2CCN(c3ccccc3)CC2)c(C#N)c(=O)o1 | -0.0521 |

| Structure (SMILES) | z-score |
| --- | --- |
| N#CCc1ccc(NC(=O)Nc2cccc(Cl)c2)cc1 | -0.288 |
| O=C(CN(C1CCCCC1)S(=O)(=O)c1ccc(F)cc1)Nc1ccc2c(c1)OCO2 | 0.327 |
| COCCN(C(=S)Nc1ccccc1C)C(C)c1cccnc1 (stereo not drawn) | -0.417 |
| Cc1ccc[n+](/C(C(=S)NCc2ccco2)=C(/[O-])c2ccccc2Cl)c1 | 0.0163 |
| Cc1ccc2c(c1)N(CCC(=O)NCc1cccnc1)C(=O)CO2 | -0.561 |
| Cc1nn2c(CN(C(=O)CN3CCOCC3)c3ccccc3)nnc2c2ccccc12 | 0.232 |
| COc1cc(N2C(=O)c3ccccc3C2=O)c(Cl)cc1C(=O)OCC(=O)NCc1ccco1 | 0.165 |
| CCN(CCCNC(=O)C1CCCN(S(=O)(=O)c2cnc[nH]2)C1)c1ccccc1 (stereo not drawn) | 0.079 |
| Cc1cc(NC(=O)CSc2cn(CCNC(=O)c3ccccc3)c3ccccc23)no1 | -0.136 |
| Cc1cccc(NC(=S)NCC(c2cccnc2)N2CCOCC2)c1C (stereo not drawn) | -0.228 |
| Cc1c(C(Nc2ccccn2)c2ccccc2)c(=O)n(-c2ccccc2)n1C (stereo not drawn) | -0.574 |
| CCOC(=O)c1cnc(SCC(=O)c2ccc(C)cc2)nc1N | -0.172 |
| CCC(C)N1CC(C(=O)NC2CCCCC2)CC1=O (stereo not drawn) | 0.0107 |
| CC(=O)N1CCC(N(CCN2CCOCC2)C(=S)Nc2cccc(C)c2C)CC1 | -0.226 |
| Cc1csc(SCC(=O)Nc2nc3ccccc3s2)n1 | active: 3.3 |
| CCn1c(=O)[nH]c2cc(C(=O)N3CCN(c4ccccc4)CC3)ccc2c1=O | -0.141 |
| Cc1cccc(NC(=S)/N=C(\N)Nc2nc(C)c3cc(C)ccc3n2)c1 | -0.139 |
| CN(Cc1ccccc1)Cc1nc2c(c(=O)n(C)c(=O)n2C)n1Cc1ccc(Cl)cc1 | -0.301 |
| CCOc1ccc(CCn2c(-c3ccco3)nc3ccccc3c2=O)cc1OCC | -0.167 |
| CCOC(=O)c1c(C)nc2c(c1-c1ccc(Cl)cc1)C(=O)CC(C)(C)C2 | -1.24 |
| O=C(NCc1ccco1)c1ccc(N2CCCC2=O)cc1 | -1.41 |
| Cc1cccc(NC(=S)NCCc2ccc(S(N)(=O)=O)cc2)c1C | 0.061 |

| Structure (SMILES) | z-score |
| --- | --- |
| COc1ccc(NC(=O)C(OC)c2ccccc2)cc1Cl (stereo not drawn) | -0.172 |
| Cc1c(C(=O)OC(C)C)sc2nc[nH]c(=O)c12 | 0.168 |
| COc1cc(NC(=O)CN2c3ccccc3CC2C)cc(OC)c1OC (stereo not drawn) | 0.186 |
| CCCOC(=O)C1C2C=CC(C3CC23)C1C(=O)OCC(=O)c1ccccc1 (stereo not drawn) | -0.407 |
| COc1ccc(-c2noc(CCC(=O)Nc3nc4ccccc4s3)n2)cc1 | -0.165 |
| CCOc1ccc(OCC(=O)NCCc2nc3ccccc3[nH]2)cc1 | 0.585 |
| CCOC(=O)CSc1nc(C(C)(C)C)cc(C(F)(F)F)c1C#N | 0.256 |
| O=C(O)COc1ccc2nsnc2c1Cl | 0.463 |
| CCOC(=O)c1c(-c2ccc(C)cc2)csc1NC(=S)NC(=O)c1ccccc1 | 0.153 |
| CC(C)(C)OC(=O)NCCc1nnc(SCc2ccccc2Cl)o1 | -0.771 |
| Cc1nc(SCC(=O)N2CCc3ccccc32)n[nH]1 | -0.751 |
| COc1ccccc1-c1nnc2sc(-c3ccc(N(C)C)cc3)nn12 | -1.04 |
| COC(=O)Cn1cnc(=O)c(C#N)c1/C=C/N(C)C | 0.0758 |
| CCCCOC(=O)C1[C@H]2C(=O)N(CCc3ccccc3)C[C@]23C=C[C@H]1O3 (stereo partly drawn) | -0.21 |
| Cc1ccc2nc(C3CCN(S(=O)(=O)c4ccc5ccccc5c4)CC3)[nH]c2c1 | -0.139 |
| CCNC(=O)c1ccc2c(c1)C1C3CCC(C3)C1C(c1ccccc1)N2 (stereo not drawn) | -0.135 |
| Cc1ccc(C)c(N2CCN(C(=O)CSc3ccsc3[N+](=O)[O-])CC2)c1 | -0.509 |
| O=C(c1ccccc1NS(=O)(=O)c1ccc(Br)s1)N1CCOCC1 | -0.0452 |
| CCOC(=O)CSc1nc2sccc2c(=O)[nH]1 | 0.0125 |
| CCCCCSc1nc(O)cc(=O)[nH]1 | -0.0443 |
| O=C(COC(=O)c1cccc(S(=O)(=O)NCc2ccccc2)c1)Nc1ccccc1OC(F)F | 0.042 |
| Cn1c(=O)c2c(nc(SCCN3CCOCC3)n2Cc2cccc3ccccc23)n(C)c1=O | -1.48 |

| Structure (SMILES) | z-score |
| --- | --- |
| Cc1nc2ccc(NC(=O)Cc3ccsc3)cc2s1 | 0.12 |
| Cc1ccc(S(=O)(=O)N/N=C/c2ccc(OC3CSC3)cc2)cc1 | 1.93 |
| Cc1nnc(-c2cnn(C)c2N)n1Cc1cccc(Cl)c1 | -0.116 |
| C=CCOc1ccc(C2C(C#N)=C(N)N(Nc3ccccc3)C3=C2C(=O)CC(C)(C)C3)cc1OC (stereo not drawn) | -0.315 |
| Cc1cccc(-c2cc3nc(C)cc(N4CC(C)CC(C)C4)n3n2)c1 (stereo not drawn) | -0.214 |
| Clc1ccc(COn2c(-c3ccc(Cl)cc3Cl)nc3ncccc32)cc1 | 0.283 |
| CCCCC(=O)Nc1ccccc1C(=O)N1CCOCC1 | 0.0261 |
| C=CCNC(=S)N/N=C/c1cn(-c2ccccc2)nc1-c1ccc(OC)cc1 | -0.184 |
| Cc1nc(NC(=O)c2ccc(Br)s2)sc1C(=O)N(C)C | 0.655 |
| c1ccc(Cn2nnnc2C(c2cccs2)N2CCSCC2)cc1 (stereo not drawn) | -0.15 |
| CC(C)=CC(=O)OCC(=O)Nc1cccc([N+](=O)[O-])c1 | 0.144 |
| COC(=O)C1(C(O)C(=O)c2ccc(C)cc2C)CCCCC1 (stereo not drawn) | -0.653 |
| CCC(C(=O)Nc1cc(C)nn1-c1nc(C)cc(C)n1)c1ccccc1 (stereo not drawn) | -0.589 |
| COc1ccc(OCc2nc3ccccc3[nH]2)cc1 | 0.101 |
| CCN(CC)c1cnn(C/C(=N\OC)c2ccc(Cl)cc2)c(=O)c1Br | -1.37 |
| CC1CCc2c(sc(NC(=O)C(=O)NCc3ccco3)c2C#N)C1 (stereo not drawn) | active: 11.4 |
| O=C(Nc1cccc(Cl)c1Cl)c1snnc1-c1ccccc1 | -0.245 |
| CS(=O)(=O)c1ccc(C(=O)OCC(=O)NC23CC4CC(CC(C4)C2)C3)cc1[N+](=O)[O-] | -0.241 |
| CCCCCCn1c(SCCC)nc2c1c(=O)[nH]c(=O)n2C | -0.205 |
| Cc1ccc(NC(=O)COc2ccccc2CNC(C)(C)CC(C)(C)C)cc1 | -0.282 |
| COc1ccccc1-c1nnc(SCC(=O)O)n1C | -0.182 |
| Cc1ccc(NS(=O)(=O)c2cccc(C(=O)O)c2)cc1S(=O)(=O)N1CCOCC1 | -0.184 |

| Structure (SMILES) | z-score |
| --- | --- |
| COc1ccc(C2=NNC(c3cccs3)=Nc3ccc(OC)cc32)cc1 | -0.175 |
| CCOC(=O)C(Cc1ccccc1)NC(=O)CCc1c(C)nc2ncnn2c1C (stereo not drawn) | 0.11 |
| CCc1ccc(N(C(=O)c2csnn2)C(C(=O)NCc2ccccc2)c2ccco2)cc1 (stereo not drawn) | -0.816 |
| O=c1ccnc(Sc2ncccc2[N+](=O)[O-])[nH]1 | -0.0558 |
| CNC(=O)c1nc(C)n(-c2cc(Cl)ccc2Cl)n1 | 0.33 |
| CCOC(=O)CNC(=O)CSc1nc(N)cc(N)n1 | -0.0826 |
| COc1ccc(NC(=O)Nc2nccs2)cc1 | 0.158 |
| CS(=O)(=O)N(CC(=O)N/N=C/c1cccs1)c1cccc(Cl)c1Cl | -0.706 |
| CCCC1CCC(=NNC(=O)CNc2ccc(OC)cc2)CC1 (stereo not drawn) | 0.000791 |
| COc1ccc(C)cc1NC(=O)COC(=O)Cc1ccc(-c2ccccc2)cc1 | -0.0516 |
| CCOC1(OCC)N=C(N)C2(C#N)C(c3cccc(C)c3)C12C#N (stereo not drawn) | 1.46 |
| Cc1ccc(S(=O)(=O)N(C)C)cc1-n1c(SCC(=O)Nc2ccc(F)c(F)c2F)nc2ccccc2c1=O | -0.563 |
| O=C1/C(=C\c2ccco2)SC(=S)N1c1ccccc1 | -0.0829 |
| O=C(CCN1C(=O)/C(=C/c2ccc3c(c2)OCO3)SC1=S)Nc1ccccc1 | 0.11 |
| CC(OC(=O)c1cc(S(=O)(=O)N(C)c2ccccc2)ccc1Cl)C(=O)Nc1ccc2c(c1)OCCO2 (stereo not drawn) | 0.0164 |
| O=C(O)c1ccc(C(=O)c2ccc3c(c2)C(=O)N(Cc2ccco2)C3=O)cc1 | -0.873 |
| COc1cc2cc(C)c(SCC(=O)N3CCOCC3)nc2cc1OC | -0.234 |
| Cc1nc(SCc2ccc(Br)cc2)[nH]c(=O)c1C | -0.743 |
| O=c1[nH]c(CCl)nc2cc(-c3ccc(Cl)cc3)sc12 | -0.12 |
| O=C1NC(c2ccco2)Nc2sc3c(c21)CCN(Cc1ccccc1)C3 (stereo not drawn) | -0.668 |
